Data reported in publication PMC4336329 (PLoS ONE, 2015).
The campaign covered roughly 310,000 compounds. About 2,200 (0.71%) showed an effect of 50% or more. The effect is printed as a negative number. The list shows a part of the results.

biological target: human ether-à-go-go-related gene (hERG) potassium channel (human, UniProt Q12809); assay: primary screen, population patch clamp on CHO cells stably expressing hERG
Sequence (Q12809 whole entry, looked up): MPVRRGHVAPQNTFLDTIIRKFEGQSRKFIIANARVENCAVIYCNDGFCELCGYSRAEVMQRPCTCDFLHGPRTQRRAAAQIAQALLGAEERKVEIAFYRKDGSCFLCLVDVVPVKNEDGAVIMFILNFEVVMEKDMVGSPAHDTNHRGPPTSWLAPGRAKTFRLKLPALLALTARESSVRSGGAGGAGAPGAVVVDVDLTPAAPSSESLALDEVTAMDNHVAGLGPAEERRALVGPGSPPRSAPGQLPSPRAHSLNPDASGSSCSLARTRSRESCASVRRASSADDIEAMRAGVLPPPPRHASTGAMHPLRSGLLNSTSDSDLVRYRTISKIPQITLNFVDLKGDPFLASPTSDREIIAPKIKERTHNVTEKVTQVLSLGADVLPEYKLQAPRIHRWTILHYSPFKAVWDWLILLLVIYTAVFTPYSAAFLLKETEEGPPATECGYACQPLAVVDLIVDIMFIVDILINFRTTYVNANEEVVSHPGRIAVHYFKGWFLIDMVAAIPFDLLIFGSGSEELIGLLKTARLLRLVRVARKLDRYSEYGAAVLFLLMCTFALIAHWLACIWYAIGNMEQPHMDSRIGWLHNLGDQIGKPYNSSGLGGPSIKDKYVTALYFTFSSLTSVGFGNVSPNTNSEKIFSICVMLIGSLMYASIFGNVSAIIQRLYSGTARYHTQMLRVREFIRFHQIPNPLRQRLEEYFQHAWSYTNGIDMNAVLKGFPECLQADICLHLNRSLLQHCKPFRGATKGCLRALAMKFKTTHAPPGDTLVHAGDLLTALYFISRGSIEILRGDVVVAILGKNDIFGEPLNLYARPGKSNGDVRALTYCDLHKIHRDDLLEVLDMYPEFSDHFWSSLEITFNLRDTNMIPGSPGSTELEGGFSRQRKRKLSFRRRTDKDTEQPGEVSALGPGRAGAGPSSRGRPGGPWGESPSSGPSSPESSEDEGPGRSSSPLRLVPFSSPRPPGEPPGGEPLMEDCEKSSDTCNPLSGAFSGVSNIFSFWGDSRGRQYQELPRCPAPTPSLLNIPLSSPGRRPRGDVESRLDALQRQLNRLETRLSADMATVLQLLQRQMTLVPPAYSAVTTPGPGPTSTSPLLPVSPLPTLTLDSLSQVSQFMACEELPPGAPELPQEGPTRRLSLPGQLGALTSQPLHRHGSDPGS

SMILES	hERG current change (%, negative = inhibition) at 1uM
CSCc1nnc2n1-c1ccc(Cl)cc1C(c1ccccc1)=NC2	4.89%
CC1CN(C(=O)c2cc3ccccc3cc2O)CC(C)O1 (stereo not shown)	10.3%
Cl.O=C(CCN1CCN(CCO)CC1)N1c2ccccc2Sc2ccc(C(F)(F)F)cc21	4.6%
COC(=O)C1=C(CS(=O)(=O)c2ccc(OC)cc2)NC(=O)NC1c1ccccc1 (stereo not shown)	13.8%
COc1ccc(C2CC(c3ccc(OC)cc3)n3nc(NC(=O)c4ccco4)nc3N2)cc1 (stereo not shown)	7.19%
COc1ccc2nc(NC(=O)C3CCN(S(=O)(=O)c4cnc[nH]4)CC3)sc2c1	17.6%
O=C(O)Cn1nc(C(F)(F)F)c2c1CCCC2	9.81%
CC1CCCN(c2nc3ccsc3c(=O)s2)C1 (stereo not shown)	0.344%
C/C(=N\NC(=O)c1ccc(O)cc1)c1ccc(NC(=O)Cc2ccccc2)cc1	14.4%
COc1ccc(/C=C2/SC(=O)N(CC(O)Cn3c4ccccc4c4ccccc43)C2=O)cc1 (stereo not shown)	5.89%
O=C(CN1CCN(S(=O)(=O)c2ccccc2[N+](=O)[O-])CC1)Nc1ccc(N2CCOCC2)cc1	-2.53%
CCN1C(=O)/C(=C2/C=CC=CN2C)SC1=S	-1.29%
COc1cccc(CN2CCCC(C(=O)c3ccc4c(c3)OCO4)C2)c1O (stereo not shown)	-44.6%
Cc1cc(OCc2cc(C(=O)NC3CCC3)no2)cc(C)c1Cl	6.38%
COc1cc(C(=O)COC(=O)CNC(=O)C2CCCCC2)cc(OC)c1OC	4.44%
COc1ccc(-n2nc3c(c2NC(=O)CCCl)CSC3)cc1	16%
CCOC(=O)N1CCN(S(=O)(=O)CCNC(=O)c2ccc(F)cc2)CC1	-1.09%
O=C(Nc1ccn(-c2ccccc2)n1)c1ccccc1Br	-0.915%
Cc1cc(NC(=O)c2ccc(Cl)c(S(=O)(=O)N3CCOCC3)c2)no1	9.21%
COc1ccc(CC(=O)N2CCN(S(=O)(=O)c3ccc(Cl)s3)CC2)cc1	-6.95%
Cc1nn(-c2ccccc2)c(/N=C/c2ccccc2O)c1-c1ccccc1	2.16%
CN(C(=O)CSc1nnc(-c2c[nH]c3ccccc23)n1C1CC1)C1CCS(=O)(=O)C1 (stereo not shown)	-3.54%
CC1CCC/C(=C\Nc2ccc3c(c2)OCO3)C1=O (stereo not shown)	-8.61%

SMILES	hERG current change (%, negative = inhibition) at 1uM
O=C(NCCCn1ccnc1)c1cc(-c2ccc3c(c2)OCO3)on1	-1.89%
CNC(=O)COC(=O)c1ccc2c(c1)NC(=O)C1CCCN21 (stereo not shown)	16.7%
CC(=O)c1ccc(S(=O)(=O)N2CCN(CC(=O)Nc3ccccc3C(=O)NC3CC3)CC2)cc1	-43.4%
O=C(NC1=NCCS1)c1nc(-c2ccccc2)n(-c2ccccc2)n1	11.5%
CCCN(CCC)CC(=O)N1CC(=O)Nc2ccccc21	6.68%
COc1ccc(C(=O)NCCn2nc(C)cc2C)cc1OC1CCN(C(C)=O)CC1	21.2%
Cn1cccc1C(=O)NCC(c1ccco1)N1CCCCC1 (stereo not shown)	-6.83%
Nn1c(SCC(=O)N2CCN(S(=O)(=O)c3ccc(Cl)cc3)CC2)nnc1-c1cccs1	-0.867%
Nc1nnc(SCCCOc2ccc(F)cc2)s1	12%
COc1ccc(S(=O)(=O)N(CC(=O)O)c2ccc(C)cc2)cc1	7.36%
CC1=NC(C(F)(F)F)(C(F)(F)F)C2=C(CC(C)(C)CC2=O)N1Cc1ccco1	9.11%
O=C(Cc1cccs1)N=Nc1c(O)[nH]c2ccc(Br)cc12	7.49%
CC(C)CNC(=O)COC(=O)/C=C/c1ccccc1[N+](=O)[O-]	14.9%
CCOc1ccc(-n2c(SCc3ccc(C(=O)OC)o3)nc3c(c2=O)SCC3)cc1	2.46%
CCNc1ccc(C(=O)OCC(=O)Nc2cc(C)on2)cc1[N+](=O)[O-]	10.9%
COc1cc(C)c(C(=O)Oc2cc(C)c(C(=O)O)c(O)c2C)c(OC)c1C	-0.425%
CC(C)(C)c1ccc(O)c(N=Cc2cc(Br)ccc2O)c1	8.85%
Cc1cc(C)c(C(=O)CSC2=NC(N)=C(C#N)C3(CCCCC3)C2C(N)=O)cc1C (stereo not shown)	-0.933%
CCc1ccccc1NC(=O)c1cc(-c2ccco2)on1	13%
CN(Cc1ccc(Br)cc1)C(=O)CCN1C(=O)c2cccc([N+](=O)[O-])c2C1=O	15.8%
Cc1ccc(Cl)cc1N1CCN(S(=O)(=O)N2CCCCC2)CC1	12%
COc1ccccc1OCCOCCn1cnc2ccccc2c1=O	12.3%
COc1cc(C(=O)Nc2nnc(SCC(=O)NCC3CCCO3)s2)cc(OC)c1OC (stereo not shown)	16.4%

SMILES	hERG current change (%, negative = inhibition) at 1uM
C/C(=C\C1CCCCC1)C(NC(=O)c1ccc(C(F)(F)F)cc1)c1ccc(-c2ccccc2)cc1 (stereo not shown)	13.9%
O=C(Cn1nnc(-c2ccc(Cl)cc2)n1)NCCC1=CCCCC1	10.9%
Cc1cc(C)c2c(c1)C1(OCCO1)C(=O)N2	14.2%
COc1ccc(-c2nn(C)c(=O)c3ccccc23)cc1CNC(=O)CN1CCOCC1	6.56%
COc1ccc(NC(=O)CSc2nncs2)cc1S(N)(=O)=O	12.9%
Cl.N[C@H]1C(O)O[C@H](CO)[C@@H](O)[C@@H]1O (stereo partly shown)	17.3%
Cc1c(C(=O)OCCN2CCCCC2)oc2ccccc12.Cl	-13.9%
O=C(O)Cn1c(=O)cnc2ccccc21	11.8%
Cc1cc2c(cc1S(N)(=O)=O)S(=O)(=O)CCC2	18.6%
O=C(NNS(=O)(=O)c1ccc(F)cc1)c1cc(Cl)ccc1O	8.95%
CC1(C)Cc2ccccc2/C(=C/C(=O)c2ccccc2)N1	12.2%
O=C(CCC(=O)Nc1ccccc1)N/N=C/c1ccccc1F	15.8%
CC1CCN(CC(O)COc2ccc(F)cc2)CC1 (stereo not shown)	-13.3%
Cc1cc2c(NCCc3ccccc3)ncnc2s1.Cl	4.42%
CC12CCC(=O)N1C(C(=O)NNC(=O)COc1ccccc1F)CS2 (stereo not shown)	6.72%
Cc1cccc(NC(=O)NC2(C)CCS(=O)(=O)C2)c1 (stereo not shown)	5.83%
CCCCN1CC[C@H]2C=CC[C@@H](C(=O)Nc3ccc(Cl)c(C(F)(F)F)c3)[C@H]2C1=O	5.4%
Cc1c(CC=C(Cl)Cl)c(=O)[nH]c2c(C)cccc12	15.4%
COC(=O)C1=C(C)Nc2c(c(=O)n(C)c(=O)n2C)C1c1cccc(O)c1 (stereo not shown)	13.1%
COc1ccc(OC)c(-c2csc(N(Cc3ccco3)C(=O)c3cccs3)n2)c1	-0.179%
COc1ccc(C(=O)COC(=O)CNC(=O)c2cccs2)cc1Br	9.1%
N#CCOC(=O)C1c2ccccc2Oc2ccccc21	10.8%
CCOc1ccccc1-n1cnc2cc(C(=O)NCc3ccco3)ccc21	-0.462%

SMILES	hERG current change (%, negative = inhibition) at 1uM
O=C(c1csc(Nc2cccc3ccccc23)n1)N1CCCC1	0.12%
CC(=O)c1ccc(NS(=O)(=O)c2ccccc2)cc1	-2.4%
S=c1[nH]cnc2sc(-c3ccccc3)cc12	-1.18%
COCCNc1nc(N)c([N+](=O)[O-])c(NCc2ccccc2)n1	13.6%
CCOC(=O)N1CCN(Cc2nc(N)nc(Nc3ccc(OCC)cc3)n2)CC1	-56%
Cc1ccc(NC(=O)CN2C(=O)/C(=C\c3cccs3)SC2=S)cc1	12.7%
Cc1cc(N)n2ncc(-c3ccc(F)cc3)c2n1	13.2%
O=C(Nc1nncs1)c1cc(-c2ccncc2)nc2ccc(Cl)cc12	8.23%
COc1ccc(S(=O)(=O)N2CCN(C(=S)Nc3ccc(S(N)(=O)=O)cc3)CC2)cc1	18.7%
CN(C)S(=O)(=O)c1cccc(NC(=S)N/N=C/c2ccco2)c1	-7.86%
O=C(Nc1ccccc1)Nc1ccc(-n2ccc(C(F)(F)F)n2)cc1	7.05%
CCS(=O)(=O)Nc1ccc(NC(C)=O)cc1	-1.44%
C=CCNC(=O)CSCc1ccc(Br)cc1	15.2%
Cc1ccc(OCCn2cnc3ccccc3c2=O)c([N+](=O)[O-])c1.O=C(O)C(=O)O	5.56%
COc1ccc(C(=O)CSc2nnc(COc3ccc(C#N)cc3)n2-c2ccccc2)cc1	-2.18%
NC(=O)c1cnn2c(-c3ccc(Cl)cc3Cl)ccnc12	12.3%
C#CCn1c(-c2ccccc2)ccc(C#N)c1=O	11.6%
COc1ccc(/C=N/NC(=O)CCC(=O)Nc2ccc(Br)cc2)c(OC)c1	4.84%
CCCC(=O)N1CCCC(c2nc(-c3cccc(OC)c3)no2)C1 (stereo not shown)	31.2%
CCc1nnc(NC(=O)Nc2ccccc2OC)s1	8.3%
O=C(O)CN(CCc1ccccc1)S(=O)(=O)c1ccccc1	9.8%
O=P(O)(O)/C=C(\Cl)c1ccccc1	2.01%
